{"source": "PubChem BioAssay AID504832", "about": "(National Center for Advancing Translational Sciences (NCATS), 2011)", "note": "The whole screen tested about 310,000 compounds, of which about 18,000 (5.8%) were called active. Inconclusive results, whose numbers are uncertain, are shown with a selection of clear calls. Calls follow the shape of the dose curve; as a rule, active = well fitted inhibition curve with a large enough effect; inconclusive = small, poorly fitted or top-dose-only effect, or another doubt; inactive = no such curve, though single readings can be large or run the other way. No potency is given beside an inconclusive call; the fits are too rough. % is scaled to controls: 0 for no effect and ±100 for the full control effect; potency is read from the fitted curve at half-maximal effect; tags tell the direction and shape of the fitted curve.", "data": [{"test": "Primary qHTS for delayed death inhibitors of the malarial parasite plastid, 48 hour incubation", "settings": "P. falciparum luciferase growth in erythrocytes; series mostly up to 28.7 µM; activity change, negative = inhibition: at the top concentration", "method_in_brief": "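Read-out is firefly luciferase luminescence from an integrated reporter in P. falciparum, so falling signal marks reduced parasite growth. Infected erythrocytes were at 2% hematocrit and 0.1% parasitemia (final) in Albumax-supplemented RPMI 1640.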", "values": [{"smiles": "O=C(Nc1cccc(C(=O)O)c1)Nc1ccc2c(c1)OCO2", "activity change, negative = inhibition": "inactive: 231%"}, {"smiles": "O=C(c1ccc([N+](=O)[O-])cc1)N1CCN(c2cccc3[nH]ccc23)CC1", "Potency": "inconclusive [inhibitor, full curve, poor fit]"}, {"smiles": "CCCCn1c(O)c(C(C)=NCCc2ccccc2)c(=O)[nH]c1=O", "Potency": "inconclusive [inhibitor, single point]"}, {"smiles": "COc1ccc(C(=O)C(c2ccccc2)N2CCOCC2)cc1", "note": "(stereo not drawn)", "Potency": "inconclusive [inhibitor, full curve, poor fit]"}, {"smiles": "CCOCCCNC(=O)/C(C#N)=C/c1cc(Br)c(O)c(Br)c1", "Potency": "inconclusive [inhibitor, single point]"}, {"smiles": "CN1CCN(C2CCN(Cc3ccc(O)c4ncccc34)CC2)CC1", "Potency": "inconclusive [inhibitor, single point]"}, {"smiles": "O=C(Cn1cnc2cc([N+](=O)[O-])ccc2c1=O)Nc1ccccc1-c1ccccc1", "Potency": "inconclusive [inhibitor, single point]"}, {"smiles": "Cc1cccc(N2CCN(C(c3cccs3)c3nnnn3C(C)(C)C)CC2)c1C", "note": "(stereo not drawn)", "Potency": "inconclusive [inhibitor, single point]"}, {"smiles": "CCCCOP(=O)(OCCCC)C(Nc1ccccc1)c1ccc2c(c1)OCO2", "note": "(stereo not drawn)", "Potency": "inconclusive [inhibitor, single point]"}, {"smiles": "Cc1cc(C)cc(NC(=O)c2cccn2-c2ncc(C(F)(F)F)cc2Cl)c1", "Potency": "inconclusive [inhibitor, single point]"}, {"smiles": "CCc1c(C)nc2ncnn2c1NCCc1ccc(OC)cc1", "Potency": "inconclusive [inhibitor, partial curve, poor fit]"}, {"smiles": "COc1cccc(CNC(=O)CSc2nnc3c(n2)[nH]c2ccc(OC)cc23)c1", "activity change, negative = inhibition": "inactive: -9.45%"}, {"smiles": "O=C(CSc1nnc(COc2ccc(Cl)cc2)o1)N1CCCC1", "activity change, negative = inhibition": "inactive: 1.9%"}, {"smiles": "COc1cc(C2OC(=O)c3c2ccc(OC)c3OC)ccc1O", "note": "(stereo not drawn)", "Potency": "active: 7.38 µM"}, {"smiles": "Cc1ccc(NC(=O)CN(C)CC(=O)N(C)Cc2ccccc2)cc1", "Potency": "inconclusive [inhibitor, single point]"}, {"smiles": "COc1ccc(C(=O)NNC(=S)NC(=O)c2ccccc2[N+](=O)[O-])cc1", "Potency": "inconclusive [inhibitor, single point]"}, {"smiles": "Cc1ccc(C(=O)Nn2cnnc2)cc1", "activity change, negative = inhibition": "inactive: 11.2%"}, {"smiles": "O=C(C1CCCN(c2ncnc3c2nc2n3CCCCC2)C1)N1CCCCC1", "note": "(stereo not drawn)", "Potency": "inconclusive [inhibitor, single point]"}, {"smiles": "COc1cccc(CNC(=O)Cn2ccc3cc(S(=O)(=O)N4CCCC4)ccc32)c1OC", "Potency": "inconclusive [inhibitor, partial curve, poor fit]"}, {"smiles": "C=CCn1c(SCC(=O)c2ccccc2)nnc1-c1cc2ccccc2o1", "Potency": "inconclusive [inhibitor, partial curve, poor fit]"}, {"smiles": "COc1ccc2cc(C3CC(c4ccco4)=NN3C(=O)CCC(=O)O)c(Cl)nc2c1", "note": "(stereo not drawn)", "activity change, negative = inhibition": "inactive: 21.4%"}, {"smiles": "Cc1ccc(NC(=O)C[n+]2cc(-c3ccccc3)n3c2CCC3)c(C)c1", "Potency": "inconclusive [inhibitor, partial curve]"}, {"smiles": "COc1ccc(-c2csc(-n3ncc(C(=O)O)c3C(F)(F)F)n2)cc1", "activity change, negative = inhibition": "inactive: 15.3% [at 0.00184 µM]"}, {"smiles": "O=S(=O)(CCSc1ccc(C(F)(F)F)cn1)c1ccccc1", "Potency": "inconclusive [inhibitor, full curve]"}, {"smiles": "O=C(/C=C/c1cccs1)N1CCc2ccccc21", "activity change, negative = inhibition": "inactive: 247%"}, {"smiles": "Cc1ccc(NC(=S)NCCc2c[nH]c3ccccc23)c(C)c1", "Potency": "inconclusive [inhibitor, single point]"}, {"smiles": "CC1(C)Cc2c(sc3nc(-c4ccccc4)n(N)c(=O)c23)CO1", "activity change, negative = inhibition": "inactive: 52%"}, {"smiles": "CCc1noc(C)c1C(=O)Nc1cc(S(=O)(=O)N(CC)CC)ccc1N1CCCC1", "activity change, negative = inhibition": "inactive: -7.2%"}, {"smiles": "CC12CCC(C(=O)N(CSC(=S)N/N=C\\c3ccccc3)C1=O)C2(C)C", "note": "(stereo not drawn)", "Potency": "inconclusive [inhibitor, single point]"}, {"smiles": "COc1ccc(NCCNc2ccc(OC)cc2)cc1", "Potency": "inconclusive [inhibitor, single point]"}, {"smiles": "CC1CN(c2ccc([N+](=O)[O-])cc2Cl)CCN1S(C)(=O)=O", "note": "(stereo not drawn)", "Potency": "active: 3.29 µM"}, {"smiles": "COc1ccc(N(CC(=O)NCc2ccc(F)cc2)C(=O)Cn2nnc(-c3ccc(C)o3)n2)cc1OC", "Potency": "inconclusive [inhibitor, single point]"}, {"smiles": "O=C(Cc1ccc([N+](=O)[O-])cc1)N1CCN=C1SCc1ccccc1", "Potency": "inconclusive [inhibitor, single point]"}, {"smiles": "Cc1ccc2c(c1)C1CN(C)CCC1N2C(=O)COc1ccc(N(C)C(=O)c2ccccc2)cc1", "note": "(stereo not drawn)", "Potency": "inconclusive [inhibitor, full curve]"}, {"smiles": "CC(C)N(C(=O)Cn1cc(S(=O)(=O)CC(=O)NCc2ccc(F)cc2)c2ccccc21)C(C)C", "Potency": "inconclusive [inhibitor, partial curve, poor fit]"}, {"smiles": "Cc1ccccc1OCC(=O)Nc1cccc2nsnc12", "activity change, negative = inhibition": "inactive: 137%"}, {"smiles": "Cc1ccc(-n2c(Cc3cccn3C)nnc2SCC(=O)N2CCN(c3ccccc3)CC2)cc1", "Potency": "inconclusive [inhibitor, partial curve]"}, {"smiles": "CCN(C(=O)CSc1nc2cc(C(F)(F)F)ccc2n1Cc1ccccc1)C1CCS(=O)(=O)C1", "note": "(stereo not drawn)", "Potency": "active: 10.4 µM"}, {"smiles": "Cc1ccccc1CC1(CO)CCCN(C(=O)c2cc(Cl)ccc2F)C1", "note": "(stereo not drawn)", "activity change, negative = inhibition": "inactive: 1.85%"}, {"smiles": "O=C(O)c1cc(Nc2nc(N3CCOCC3)nc(N3CCOCC3)n2)ccc1Cl", "activity change, negative = inhibition": "inactive: -7.8%"}, {"smiles": "COc1cccc(CNC(=O)C2CCCN(S(=O)(=O)c3c(C)noc3/C=C/N(C)C)C2)c1", "note": "(stereo not drawn)", "Potency": "inconclusive [inhibitor, single point]"}, {"smiles": "CCCCC1(Br)C(=O)N(c2ccccc2)N(c2ccccc2)C1=O", "Potency": "inconclusive [inhibitor, single point]"}, {"smiles": "COc1ccc(C(CCN(Cc2ccc(OC)c(OC)c2)C(C)=O)c2ccccc2)cc1", "note": "(stereo not drawn)", "Potency": "inconclusive [inhibitor, single point]"}, {"smiles": "CCOC(=O)c1c(NC(=O)COc2ncnc3sccc23)sc2c1CCC2", "Potency": "inconclusive [inhibitor, partial curve]"}, {"smiles": "Cc1cc(Br)ccc1OCC(=O)N(Cc1nc(-c2ccccc2)no1)C(C)C", "Potency": "inconclusive [inhibitor, partial curve, poor fit]"}, {"smiles": "O=C(Nc1nnc(C2CC2)s1)c1ccco1", "activity change, negative = inhibition": "inactive: 190%"}, {"smiles": "CC(=O)Nc1c2c(nn1-c1ccc(F)cc1)CSC2", "activity change, negative = inhibition": "inactive: 33%"}, {"smiles": "CC1S/C(=N\\N=C\\c2cccc([N+](=O)[O-])c2)N(C(C)(C)C)C1=O", "note": "(stereo not drawn)", "Potency": "inconclusive [inhibitor, partial curve]"}, {"smiles": "Nc1ccc(Oc2ccc3nc(-c4ccccc4)c(-c4ccc([N+](=O)[O-])cc4)nc3c2)cc1", "Potency": "inconclusive [inhibitor, partial curve]"}, {"smiles": "CCN(CC)S(=O)(=O)c1ccc2nc(COC(=O)c3n[nH]c4ccccc34)[nH]c2c1", "Potency": "inconclusive [inhibitor, full curve, poor fit]"}, {"smiles": "CN(CC(=O)Nc1ccc(Cl)c(C(F)(F)F)c1)C(=O)C1(c2ccccc2)CC1", "Potency": "inconclusive [inhibitor, single point]"}, {"smiles": "O=C(NC1CCCCC1)C(c1ccc(O)c(O)c1)N(C(=O)Cn1nnc2ccccc21)c1cccc(O)c1", "note": "(stereo not drawn)", "activity change, negative = inhibition": "inactive: -19.4%"}, {"smiles": "COc1cccc(Cn2ncc3c4sc(Br)cc4n(C)c3c2=O)c1", "Potency": "inconclusive [inhibitor, single point]"}, {"smiles": "COc1cccc(-n2sc3c(c2=S)-c2cc(OC)ccc2NC3(C)C)c1", "Potency": "inconclusive [inhibitor, single point]"}, {"smiles": "CCN(CC)CCCNc1ncnc2ccccc12", "Potency": "inconclusive [inhibitor, single point]"}, {"smiles": "Nc1nonc1C(=O)NCCNS(=O)(=O)c1ccc(Br)cc1", "activity change, negative = inhibition": "inactive: -17.1%"}, {"smiles": "Cc1cc(C)cc(Oc2nc3ccccn3c(=O)c2/C=C(\\C#N)C(=O)NC2CCS(=O)(=O)C2)c1", "note": "(stereo not drawn)", "Potency": "inconclusive [inhibitor, partial curve, poor fit]"}, {"smiles": "O=C(N1CCOCC1)N1CCN(S(=O)(=O)c2cccc([N+](=O)[O-])c2)CC1", "activity change, negative = inhibition": "inactive: 16.6%"}, {"smiles": "O=C(COc1ccccc1)NC1CCSc2ccccc21", "note": "(stereo not drawn)", "Potency": "inconclusive [inhibitor, single point]"}, {"smiles": "Cc1ccc(N(C(=O)c2csnn2)C(C(=O)NC2CCCCC2)c2ccco2)cc1", "note": "(stereo not drawn)", "Potency": "inconclusive [inhibitor, partial curve, poor fit]"}, {"smiles": "O=C(Cc1ccccc1)NNC(=S)NC(=O)c1cccnc1", "Potency": "inconclusive [inhibitor, partial curve, poor fit]"}, {"smiles": "O=C(CSc1nnc(NC(=O)c2ccco2)s1)NC1CCCC1", "Potency": "inconclusive [inhibitor, single point]"}, {"smiles": "Cc1[nH]n(-c2ccc(Cl)cc2)c(=O)c1N=Nc1cccnc1", "Potency": "inconclusive [inhibitor, partial curve]"}, {"smiles": "O=C(NN1C(=O)c2ccccc2C1=O)C1C2CCCCC21", "note": "(stereo not drawn)", "activity change, negative = inhibition": "inactive: 35.3%"}, {"smiles": "COc1ccc(Nc2ncc3c(n2)CC(c2ccc(C)cc2)CC3=O)cc1", "note": "(stereo not drawn)", "Potency": "inconclusive [inhibitor, partial curve, poor fit]"}, {"smiles": "Cc1ccc(-n2nc3c(N4CCC(C(=O)NCc5ccc(C)o5)CC4)nnc(C)c3c2C)cc1", "Potency": "inconclusive [inhibitor, single point]"}, {"smiles": "CCCCNC(=O)Nc1ccccc1CC", "activity change, negative = inhibition": "inactive: -6.64%"}, {"smiles": "Fc1c(F)c(C(F)(F)F)c(F)c(F)c1N/N=C\\c1cccs1", "Potency": "inconclusive [inhibitor, single point]"}]}]}
